# Laboratory results as given in PubChem BioAssay AID588855 (National Center for Advancing Translational Sciences (NCATS), 2011).
# Hit rate of the full screen: of about 410,000 compounds, about 5,000 (1.2%) were called active. The inconclusive results got no clear call from the source; some entries with a clear call stand among them for comparison. Calls come from the whole dose curve; as a rule, active = well fitted inhibition curve with a large enough effect; inconclusive = small, poorly fitted or top-dose-only effect; inactive = no such curve, though single readings can be large or run the other way. Potencies of inconclusive entries are doubtful fits and often do not repeat.
# Experiment: qHTS for Inhibitors of TGF-b; note: nearly all actives have a fitted effect of over 65% in size
# Settings: HepG2 CAGA-GFP TGF-b/SMAD3 reporter, GFP fluorescence, 18 h, TGF-beta stimulated, 500 pg/mL final; series mostly up to 46.1 µM
# How it was run: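 TGF-beta reporter screen: HEPG2 CAGA-GFP, 1% FBS, 500 pg/mL TGF-beta final, 18 h; per-cell GFP summed per well; curves fitted and categorized by class.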
# Potency is the fitted concentration of half-maximal effect; tags give direction and shape of the fitted curve.
row,SMILES,Potency
1,Cc1ccc(Cl)cc1-n1ncc2c(NCc3ccc(F)cc3)ncnc21,"inconclusive: 25.1 µM [inhibitor, single point]"
2,Cc1cc(N/N=C/c2ccccc2O)c2ccccc2n1,"inconclusive: 35.5 µM [inhibitor, single point]"
3,O=C1C(Cl)=C(NCCc2ccccc2)C(=O)c2ccccc21,"inconclusive: 22.4 µM [inhibitor, single point]"
4,Cc1ccc(SCC(=O)NCc2ccccc2)cc1,"inconclusive: 35.5 µM [inhibitor, single point]"
5,CC1CCCN(C(=O)c2cccc(S(=O)(=O)NCc3ccccc3)c2)C1 (stereo unspecified),inactive
6,C/C(=N\NC(=O)c1ccccc1OCCOc1ccccc1)c1ccccc1F,active: 20 µM
7,O=C(CSc1nc2nc(-c3cccs3)cc(C(F)(F)F)c2c(=O)[nH]1)Nc1ccc(F)c(F)c1,"inconclusive: 4.47 µM [inhibitor, full curve, poor fit]"
8,COc1ccc(Nc2cc(C)c3ccc(O)cc3n2)cc1,"inconclusive: 35.5 µM [inhibitor, single point]"
9,Cc1ccc(N(C(=O)c2nsc(Cl)c2Cl)C(C(=O)NC2CCCC2)c2ccc(O)cc2)cc1C (stereo unspecified),"inconclusive: 25.1 µM [inhibitor, single point]"
10,Cc1ccc(NC(=O)N2CCCC2C(=O)NCC2CCCO2)cc1 (stereo unspecified),inactive
11,COc1ccc(/C=C(\C#N)c2nc3ccccc3[nH]2)cc1O,inactive
12,COc1ccc(C2(O)C(=O)Nc3ccccc32)cc1 (stereo unspecified),inactive
13,Cc1ccc(CN2CCSc3ccc(C(=O)NCCCN4CCN(C)CC4)cc32)cc1,inactive
14,CC(C)CCOC(=O)C(C)Sc1n[nH]c(=O)[nH]c1=O (stereo unspecified),inactive
15,CCO[C@H]1OC(C(=O)N2CCN(Cc3ccccc3)CC2)=C[C@@H](C)[C@@H]1CCCO,inactive
16,Cc1cccc(C)c1NC(=O)/C(C#N)=C/c1ccc(-c2ccc(C(=O)O)cc2)o1,"inconclusive: 3.16 µM [inhibitor, partial curve, poor fit]"
17,Cc1cc(N)c2cc(NC(=O)/C=C/c3ccccc3Cl)ccc2n1,active: 7.08 µM
18,COc1ccc(CNC(=O)CCNC(=O)c2ccco2)cc1OC,inactive
19,CC(C)Oc1ccc(CNC(=O)CCC(=O)N2CCSc3ccccc32)cc1,"inconclusive: 25.1 µM [inhibitor, single point]"
20,CSc1ncc(C(=O)Nc2cccc(C)c2C)c(-c2ccccc2)n1,inactive
21,COc1cccc2c(N/N=C/c3ccc(O)c(O)c3)cc(C)nc12,inactive
22,Cc1ccc(NC(=O)CSc2nc(-c3ccc(C(C)(C)C)cc3)nc3cc(=O)[nH]n23)cc1C,"inconclusive: 15.8 µM [inhibitor, single point]"
23,CCCCn1nnnc1C(CCc1ccccc1)N1CCN(C/C=C/c2ccccc2)CC1 (stereo unspecified),"inconclusive: 35.5 µM [inhibitor, single point]"
24,CC(=O)N/C(=C/c1ccc2c(c1)OCO2)C(=O)NCCCO,"inconclusive: 0.891 µM [inhibitor, partial curve, poor fit]"

row,SMILES,Potency
1,CCOC(=O)c1nnn(-c2nonc2N)c1-c1ccc(OC)cc1,inactive
2,COc1ccc(OC)c(C(=O)COC(=O)C2CC3CCCC(C2)C3=O)c1 (stereo unspecified),"inconclusive: 22.4 µM [inhibitor, single point]"
3,Cc1ccc2c(c1)nnn2C1CCN(C(=O)C23CC4CC(CC(C4)C2)C3)CC1,"inconclusive: 1.58 µM [inhibitor, partial curve, poor fit]"
4,CCOC(=O)CN(C(=O)COc1nc(-c2ccccc2)cc(C)c1C#N)c1ccccc1C,inactive
5,COC(=O)C1=C(C)N(c2ccc(Cl)cc2)/C(=C/c2cccs2)C1=O,inactive
6,COc1cc(C(=O)NNC(=O)c2ccccc2Br)ccc1OCC(=O)N1CCOCC1,"inconclusive: 0.447 µM [inhibitor, full curve, poor fit]"
7,Cc1onc(-c2c(Cl)cccc2Cl)c1C(=O)N/N=C(\N)COc1ccc(Cl)cc1,active: 6.31 µM
8,Cc1ccc(CNC(=O)C2CCCCN2S(=O)(=O)c2ccc(F)cc2)cc1 (stereo unspecified),inactive
9,CCOc1cc(C2Nc3ccccc3C(=O)N2Cc2ccco2)ccc1OCc1ccccc1Cl (stereo unspecified),"inconclusive: 10 µM [inhibitor, partial curve]"
10,CN(C)S(=O)(=O)c1cc(NC(=O)c2ccc(-n3ccnc3)c([N+](=O)[O-])c2)ccc1Cl,"inconclusive: 20 µM [inhibitor, partial curve, poor fit]"
11,Cc1nn(-c2ccccc2)c(C)c1/C=N/NC(=O)CSc1nnc(SCc2ccccc2Cl)s1,"inconclusive: 3.55 µM [inhibitor, full curve, poor fit]"
12,COc1ccc(-c2c[n+](CC(=O)OC3CC(C)CCC3C(C)C)c3n2CCC3)cc1 (stereo unspecified),active: 20 µM
13,Cc1cc(C)c(S(=O)(=O)Nc2ccccc2-c2ccccc2)c(C)c1,"inconclusive: 35.5 µM [inhibitor, single point]"
14,Cc1ccsc1CN(C)C(=O)C1CCC(=O)N(CCc2cccc(F)c2)C1 (stereo unspecified),"inconclusive: 35.5 µM [inhibitor, single point]"
15,CC1CCCN(C(=O)c2ccc([N+](=O)[O-])o2)C1 (stereo unspecified),inactive
16,O=[N+]([O-])c1ccccc1/C=N/n1c(C2CCCCC2)n[nH]c1=S,"inconclusive: 12.6 µM [inhibitor, single point]"
17,Nc1nc(-c2ccc3c(c2)NC(=O)CO3)cs1,inactive
18,CC1(c2nnc(-c3cccc(Cl)c3)o2)CC(c2ccccc2F)=NO1 (stereo unspecified),"inconclusive: 35.5 µM [inhibitor, single point]"
19,Cc1ccc2c(c1)c1c3n2CCN(CCC#N)C3CCC1 (stereo unspecified),inactive
20,CCOc1cccc(C(=O)N(Cc2ccc(N(C)C)cc2)CC2CCCO2)c1 (stereo unspecified),"inconclusive: 35.5 µM [inhibitor, single point]"
21,S=C1NCCc2ccccc2C1c1ccccc1 (stereo unspecified),inactive
22,COc1ccc(-c2cc(C#N)nc(NN)n2)cc1,"inconclusive: 15.8 µM [inhibitor, single point]"
23,Nc1n[nH]c(C2CC2)c1N=Nc1ccc(Cl)c(Cl)c1,"inconclusive: 35.5 µM [inhibitor, single point]"
24,Cc1nc2c(OCCOc3ccccc3)cccn2c1N(C)C(=O)CCC1CCCC1,"inconclusive: 35.5 µM [inhibitor, single point]"

row,SMILES,Potency
1,Oc1cc(Nc2cccnc2)cc2cccnc12,"inconclusive: 14.1 µM [inhibitor, single point]"
2,O=C(O)c1c(-c2ccccc2)oc2ccc(OCc3ccc(Cl)c(Cl)c3)cc12,"inconclusive: 35.5 µM [inhibitor, single point]"
3,COC(=O)c1ccccc1SC(CC(=O)c1ccccc1)c1ccc(F)cc1 (stereo unspecified),"inconclusive: 35.5 µM [inhibitor, single point]"
4,CN(C)c1nc(C=C(C#N)C#N)c(Cl)n1-c1ccc(F)cc1,active: 5.01 µM
5,Cc1cccc(Cn2nc(C)c(NC(=O)c3ccc(F)cc3)c2C)c1,inactive
6,O=CNc1c(Br)cc2c(c1Br)Cc1cc(Br)ccc1-2,inactive
7,Cc1cc(C)cc(NS(=O)(=O)c2ccc(-n3cccn3)cc2)c1,"inconclusive: 22.4 µM [inhibitor, single point]"
8,NC(=O)c1cc2cc([N+](=O)[O-])ccc2oc1=O,inactive
9,COc1ccc(-c2cccc(NS(=O)(=O)c3ccc(C)s3)c2)nn1,"inconclusive: 12.6 µM [inhibitor, single point]"
10,CC(=O)C1CCC2C3CC(C)=C4CC(O)CCC4(C)C3CCC12C (stereo unspecified),inactive
11,COc1ccc(-c2nn(-c3ccccc3)cc2/C=C/C(=O)N(C)CC(=O)Nc2cccc(F)c2)cc1OC,"inconclusive: 8.91 µM [inhibitor, partial curve]"
12,COc1cc(S(=O)(=O)n2nc(C)cc2C)c(OC)cc1Cl,"inconclusive: 35.5 µM [inhibitor, single point]"
13,Fc1ccccc1NC(=S)NCCc1ccc(Cl)cc1,"inconclusive: 4.47 µM [inhibitor, full curve, poor fit]"
14,CCN(c1ccccc1)S(=O)(=O)c1ccc(C(=O)N2CC(C)CC(C)C2)cc1 (stereo unspecified),"inconclusive: 20 µM [inhibitor, single point]"
15,Cc1[nH]c2ccccc2c1C(=O)COC(=O)C1CC(O)CN1S(=O)(=O)c1ccc(Cl)cc1 (stereo unspecified),"inconclusive: 8.91 µM [inhibitor, partial curve, poor fit]"
16,COc1ccccc1-c1c(C)oc2cc(OC(=O)c3ccco3)ccc2c1=O,inactive
17,CCOc1ccc(C(=O)CCN2CCCCC2)cc1,"inconclusive: 1 µM [inhibitor, partial curve, poor fit]"
18,CCN1CCc2c(sc(N)c2C(N)=O)C1,inactive
19,COC(=O)CSc1nnc(CNC(=O)c2ccccc2OC)n1-c1ccc(OC)cc1,"inconclusive: 35.5 µM [inhibitor, single point]"
20,Cc1cccc(NS(=O)(=O)c2ccc3c(c2)[C@H]2C=CC[C@H]2[C@@H](c2ccc(F)cc2)N3)c1,"inconclusive: 7.94 µM [inhibitor, partial curve]"
21,CCCOc1ccc(-c2nn(-c3ccccc3)cc2C2NC(=O)NC(C)=C2C(=O)OC)cc1 (stereo unspecified),"inconclusive: 35.5 µM [inhibitor, single point]"
22,CCCN(CCC)c1nc2ccccc2nc1C(C#N)C(=O)OC(C)COC (stereo unspecified),"inconclusive: 35.5 µM [inhibitor, single point]"
23,COC(=O)c1[nH]c2ccccc2c1NC(=O)CN1CCN(c2cccc(Cl)c2)CC1,"inconclusive: 11.2 µM [inhibitor, partial curve, poor fit]"
